Results as given in PubChem BioAssay AID894 (National Center for Advancing Translational Sciences (NCATS), 2007).
Among all 150,000 compounds or so, about 6,500 (4.3%) were called active. Inconclusive results, whose numbers are uncertain, are shown with a selection of clear calls. Calls follow the shape of the dose curve; as a rule, active = well fitted inhibition curve with a large enough effect (not every such curve was filed as active); inconclusive = small, poorly fitted or top-dose-only effect, or another doubt; inactive = no such curve, though single readings can be large or run the other way. Potencies of inconclusive entries are left out as doubtful fits.

These compounds were tested against 15-hydroxyprostaglandin dehydrogenase [NAD(+)] (Homo sapiens) (UniProt P15428) (assay: qHTS Assay for Inhibitors of HPGD (15-Hydroxyprostaglandin Dehydrogenase)). Settings: purified HPGD, NADH fluorescence kinetic, PGE2 substrate; activity change, negative = inhibition: stronger effect = lower value.
How it was run: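 20 nM HPGD preincubated 15 min at room temperature with compound in 50 mM Tris-HCl pH 8, 0.01% Tween 20. Started with 1 mM NAD+ and 30 uM prostaglandin E2; NADH fluorescence (360/450 nm) read 5 times over 30-s intervals, last minus first.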
% is scaled to controls: 0 for no effect and ±100 for the full control effect; potency is read from the fitted curve at half-maximal effect; tags tell the direction and shape of the fitted curve.

Sequence of UniProt P15428 (P15428 whole entry, looked up): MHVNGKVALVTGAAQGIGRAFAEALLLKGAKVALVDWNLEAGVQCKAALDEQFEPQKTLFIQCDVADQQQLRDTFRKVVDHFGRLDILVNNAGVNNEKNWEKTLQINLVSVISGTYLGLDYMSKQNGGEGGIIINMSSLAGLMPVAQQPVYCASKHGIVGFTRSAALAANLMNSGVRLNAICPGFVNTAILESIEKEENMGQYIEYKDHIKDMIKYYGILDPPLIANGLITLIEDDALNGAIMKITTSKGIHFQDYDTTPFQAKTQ

| Compound | Potency | activity change, negative = inhibition |
| --- | --- | --- |
| O=C(c1cc2c(cc1Br)OCCCO2)N1CCCCC1 | active: 2.24 µM |  |
| O=C(NCc1ccccn1)c1ccc(Br)s1 | inconclusive [inhibitor, partial curve] |  |
| CCOC(=O)c1c(NC(=O)c2ccc(C)cc2)sc2c1CC(C)(C)OC2 | inconclusive [inhibitor, partial curve] |  |
| CCN(CC)c1ccc(-c2nc3cnccc3n2C)cc1 | inconclusive [inhibitor, partial curve] |  |
| O=C(N1CCN(c2ccccc2F)CC1)C12CC3CC(CC(C3)C1)C2 |  | inactive: -15.7% |
| COc1cccc(Nc2nc3ccccc3n3nnnc23)c1 | inconclusive [inhibitor, single point] |  |
| COc1ccc(C(=O)Nn2c(SCC(=O)N3CCC(C)CC3)nc3ccccc3c2=O)cc1 | inconclusive [inhibitor, single point] |  |
| CSc1nc(NCCOCCO)c2sc3nc(-c4ccco4)c4c(c3c2n1)CCC4 | inconclusive [inhibitor, partial curve] |  |
| O=C(CN1C(=O)/C(=C\c2ccc(F)cc2)Oc2ccccc21)NCc1ccco1 | inconclusive [inhibitor, partial curve] |  |
| O=C(CN1CCN(Cc2ccccc2)CC1)Nc1cccc(C(F)(F)F)c1 |  | inactive: -11.4% |
| O=C(CSc1ccc(-c2ccco2)nn1)NCc1ccccc1 | inconclusive [inhibitor, partial curve] |  |
| Cc1cc(O)c(C(C)C)cc1NS(=O)(=O)c1ccccc1 |  | inactive: -8.14% |
| Cn1c(C(=O)NCCN2CCCCCC2)cc2c(=O)n(C)c3ccccc3c21 | inconclusive [inhibitor, partial curve] |  |
| C[C@H](NCCc1ccc(O)cc1)[C@@H](O)c1ccc(O)cc1 |  | inactive: -7.5% |
| O=C(CSc1ccccc1Cl)N1CCC(c2nc3ccccc3s2)CC1 |  | inactive: -4.02% |
| NC(=Nc1ccccc1)NC(=O)c1nc(Cl)c(N)nc1N | inconclusive [inhibitor, partial curve] |  |
| Cc1cc(C(=O)CSc2nncs2)c(C)n1-c1c(C)n(C)n(-c2ccccc2)c1=O |  | inactive: -3.14% |
| Cc1ccccc1C(=O)NNC(=O)C(C)N1C(=O)c2ccccc2C1=O (stereo not drawn) | inconclusive [inhibitor, single point] |  |
| Clc1ccc(C[n+]2csc3ccccc32)cc1 | active: 15.8 µM |  |
| COc1cc(OC)c(OC)cc1/C=N/n1c(C)nnc1C | inconclusive [inhibitor, partial curve] |  |
| Cc1nc2ccccc2n1-c1ccccc1 |  | inactive: -13.5% |
| CCC(C)C(NC(=O)c1ccccc1NC(=O)c1ccc(OC)cc1)C(=O)NCc1ccco1 (stereo not drawn) | inconclusive [inhibitor, single point] |  |
| CC1CCCN(C(=O)Cc2ccc(F)cc2)C1 (stereo not drawn) |  | inactive: -25.1% |
| CCCCNC(=O)/C=C/c1ccc(OC)c(Br)c1 | active: 25.1 µM |  |
| COc1ccc(C)cc1C(=O)CCC(=O)Nc1ccccc1N1CCOCC1 |  | inactive: -12.4% |

| Compound | Potency | activity change, negative = inhibition |
| --- | --- | --- |
| CC(=O)Nc1cc2nn(-c3ccccc3)nc2cc1Cl | inconclusive [inhibitor, partial curve] |  |
| N#Cc1c(N2CCCC2)nc(N)c2c(N)nc(N3CCCC3)cc12 | inconclusive [inhibitor, full curve] |  |
| COCCN(CCOC)c1cc(C)c(C#N)c2nc3ccccc3n12 | inconclusive [inhibitor, partial curve] |  |
| CC1(C)Cc2c(C#N)c(N3CCN(C(=O)c4ccccc4)CC3)nc(Cc3ccccc3)c2CO1 | inconclusive [inhibitor, partial curve] |  |
| CCOC(=O)N1CCN(CC(=O)Nc2cc3c(cc2C(C)=O)OCO3)CC1 | inconclusive [inhibitor, partial curve] |  |
| COc1ccccc1C1C=C(c2ccc(Cl)cc2)Nc2nc(N3C(=O)CCC3=O)nn21 (stereo not drawn) | inconclusive [inhibitor, partial curve] |  |
| Cc1cccc2nc(-c3cccc(NC(=O)Cc4ccccc4)c3)cn12 |  | inactive: -24.5% |
| CSc1ccccc1N=Cc1nc(-c2ccccc2)oc1O | inconclusive [inhibitor, partial curve] |  |
| Cc1c(C(=O)N2CCC(C)CC2)sc2ncnc(N(C)c3ccccc3)c12 | active: 8.91 µM |  |
| COC(=O)c1ccc(NN=Nc2ccc(C)cc2)cc1 | inconclusive [inhibitor, single point] |  |
| Cc1ccc(-n2ncc3c(NCC4CCCO4)ncnc32)c(C)c1 (stereo not drawn) | active: 2.24 µM |  |
| O=C(COc1ccc(Cl)cc1Cl)NCc1ccco1 | inconclusive [inhibitor, partial curve] |  |
| COc1ccc(CNC(=S)N/N=C/c2ccc(OC)c(OC)c2)cc1 | active: 22.4 µM |  |
| COC(=O)COc1ccc(Cl)cc1C1Nc2ccccc2C(=O)N1c1ccc(OC)cc1 (stereo not drawn) | inconclusive [inhibitor, single point] |  |
| C=CCn1c(C(CCCC)CC(C)O)n[nH]c1=S (stereo not drawn) |  | inactive: -3.75% |
| Cc1cccc(-c2nnc(-c3cccc(NC(=O)Cc4cccs4)c3)o2)c1 | inconclusive [inhibitor, partial curve, poor fit] |  |
| COc1ccc2c(c1)C(=O)[C@H](OC(=O)Nc1cc(OC)c(OC)c(OC)c1)[C@@H](c1ccc(OC)c(Br)c1)O2 |  | inactive: -8.31% |
| COC(=O)C1=CNC=C(C(=O)OC)C1c1ccc(Cl)cc1 | inconclusive [inhibitor, partial curve] |  |
| O=C1CCCC2=C1C(c1ccco1)Nc1ccc3ccccc3c12 (stereo not drawn) | inconclusive [inhibitor, partial curve] |  |
| CC1CCC/C(=C\Nc2ccc(O)cc2)C1=O (stereo not drawn) | inconclusive [inhibitor, partial curve, poor fit] |  |
| COc1ccc(/C=C/C(=O)OCC(=O)c2c(C)[nH]c3ccccc23)cc1OC | inconclusive [inhibitor, partial curve] |  |
| Fc1ccc(/C=C2\CCCC3=C2Nc2ncnn2C3c2ccc(F)cc2)cc1 (stereo not drawn) | inconclusive [inhibitor, partial curve] |  |
| CCOC(=O)c1ccc(CSc2nncn2N)o1 | inconclusive [inhibitor, single point] |  |
| Cc1cccc(N2CCN(C(=O)Cn3sc4nc(C)cc(C)c4c3=O)CC2C)c1 (stereo not drawn) | active: 3.16 µM |  |
| CCn1c(=S)[nH]c2ccccc21 |  | inactive: -1.88% |

| Compound | Potency | activity change, negative = inhibition |
| --- | --- | --- |
| CCCCc1nnc(SCc2ccc(OCC)cc2)n1N | active: 25.1 µM |  |
| Cc1ccc(C)c(S(=O)(=O)c2c(N)n(/N=C/c3ccco3)c3nc4ccccc4nc23)c1 | inconclusive [inhibitor, partial curve] |  |
| O=S(=O)(c1ccccc1)N1CCC2(CC1)CN(c1ncccn1)C2 | inconclusive [inhibitor, partial curve] |  |
| O=C(O)c1ccccc1OP(=O)(O)O | inconclusive [inhibitor, partial curve] |  |
| O=C(NC1CCCCC1)C(c1ccncc1)N(Cc1ccccc1)C(=O)c1ccc(-c2ccccc2)[nH]1 (stereo not drawn) |  | inactive: -16.7% |
| O=C(N/N=C/c1coc2ccccc2c1=O)c1cc2ccccc2o1 |  | inactive: -20% |
| CCOc1ccc(-c2nc(C#N)c(N3CCN(C)CC3)o2)cc1 | inconclusive [inhibitor, partial curve] |  |
| CCCc1cc(=O)oc2cc(C)cc(OCc3nn[nH]n3)c12 | inconclusive [inhibitor, partial curve] |  |
| Cc1ccccc1N1CCN(C(=O)c2ccccc2NC(=O)C2CC=CCC2C(=O)O)CC1 (stereo not drawn) |  | inactive: -1.86% |
| CC(C)CC(=O)n1sc(NC(=O)c2ccccc2)nc1=O |  | inactive: -17.4% |
| O=C1NCC(c2ccccc2)C1C(=O)N/N=C\c1ccc(-c2cccc(Cl)c2Cl)o1 (stereo not drawn) | inconclusive [inhibitor, partial curve] |  |
| Cc1cc(=O)oc2c(CN3CCN(C)CC3)c(O)c(Cl)cc12 | inconclusive [inhibitor, full curve] |  |
| COc1cc(C=O)ccc1OCC(=O)N1CCOCC1 |  | inactive: -2.96% |
| CCn1c(C)csc1=NC(=O)c1ccccc1O | inconclusive [inhibitor, partial curve] |  |
| COc1ccccc1N/N=C/c1ccc2c(c1)OCO2 | active: 15.8 µM |  |
| Cc1ccc(-c2nc3ccccc3[nH]2)s1 | inconclusive [inhibitor, partial curve] |  |
| CSc1ccccc1C(=O)Nc1ncc(C)s1 |  | inactive: -6.52% |
| N#CCO/N=C(\c1ccccc1)c1ccncc1 | inconclusive [inhibitor, single point] |  |
| COc1ccc(C)cc1N(CC(=O)NC1CCCC1)C(=O)CCC(=O)Nc1cc(C)on1 |  | inactive: -0.84% |
| COC(=O)c1ccc(C(=O)OC)c(NC(=O)COC(=O)C2CCCCC2)c1 | inconclusive [inhibitor, partial curve] |  |
| Cc1ccc2cc(C)c(N3CCN(c4ccccn4)CC3)nc2c1 | inconclusive [inhibitor, partial curve] |  |
| O=C(NCc1csc(-c2ccccc2)n1)c1ccco1 | inconclusive [inhibitor, partial curve] |  |
| Cc1nn(-c2ccccc2)c2[nH]c(C(F)(F)F)cc(=O)c12 | inconclusive [inhibitor, partial curve] |  |
